Results from PubChem BioAssay AID1346428 (National Center for Advancing Translational Sciences (NCATS), 2018).
In all, about 48,000 compounds went through this assay and about 1,200 (2.5%) were called active. Not shown: some 2% with an inconclusive outcome.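 How the source made its calls: active means activation of at least 60% and not above a set upper limit (about 1 call in 100 departs from these limits); inconclusive means activation of 40% to 60%, or above that upper limit; inactive means activation under 40%.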 The list shows a part of the results.

Biological target: Probable G-protein coupled receptor 32 (Homo sapiens) (UniProt O75388)
Sequence of UniProt O75388 (O75388 whole entry, looked up): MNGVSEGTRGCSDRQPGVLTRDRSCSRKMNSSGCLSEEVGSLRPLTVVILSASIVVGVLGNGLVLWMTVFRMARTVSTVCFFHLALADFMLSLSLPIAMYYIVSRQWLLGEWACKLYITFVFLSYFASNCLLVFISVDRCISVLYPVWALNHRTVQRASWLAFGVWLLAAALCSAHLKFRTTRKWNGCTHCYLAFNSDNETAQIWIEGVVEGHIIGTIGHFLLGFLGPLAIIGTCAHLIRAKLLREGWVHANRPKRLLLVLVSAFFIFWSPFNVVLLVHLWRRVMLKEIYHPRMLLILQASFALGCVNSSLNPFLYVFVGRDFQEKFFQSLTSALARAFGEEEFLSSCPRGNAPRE
Assay: qHTS for Agonists of Human Resolvin D1 Receptor DRV1; further: 0% is about no effect
Conditions: CHO-K1 GPR32 beta-arrestin PathHunter luminescence, 90 min; at 76.9 µM; stronger effect = higher value; zero percent set by DMSO-only wells
Procedure, shortened: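 CHO-K1 cells stably expressing ProLink-tagged GPR32 and Enzyme Activator-tagged beta-arrestin were seeded at 2,500 cells/well overnight, exposed to compounds for 90 min at 37 °C, then read by beta-Gal complementation chemiluminescence after 1 h detection reagent.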

SMILES	activation
CC(C)Cn1c(=O)c2sccc2n2c(CCCC(=O)NCCc3ccc(Cl)cc3)nnc12	inactive: -9.38%
O=C(Nc1ccc(Br)cc1)c1ccc(F)c(S(=O)(=O)N2CCCc3ccccc32)c1	inactive: -3.74%
CC(C)NC(=O)c1ccc(-n2c(-c3ccccc3)cc3c2CCCC3)cc1	inactive: -23.8%
COc1ccc(OCC(=O)Nc2ccc3c(c2)nc(CCNC(=O)c2ccco2)n3C)cc1	inactive: 10.5%
CCc1ccc(NC(=O)CSc2nc(-c3ccccc3Cl)nc3c2Cc2c(CO)cnc(C)c2O3)cc1	inactive: -4.18%
CCc1ccc2nc(N(Cc3cccnc3)C(C)=O)sc2c1	inactive: -26.4%
CCOC(=O)c1ccc(CN(Cc2ccc(Cl)cc2Cl)S(=O)(=O)c2ccc(F)c(C)c2)cc1	inactive: -17.8%
COc1ccc(NC(=O)Cn2c(=O)n(Cc3nc(-c4ccccc4)no3)c(=O)c3cc4c(cc32)OCO4)c(OC)c1	inactive: -0.763%
O=C(Nc1ccc2oc(-c3cccnc3)nc2c1)c1ccc(Br)cc1	inactive: -0.276%
Cc1nn(CC(=O)NCc2ccc(Cl)cc2)c(=O)c2cc3sccc3n12	inactive: 1.84%
CN1CCN(c2c(F)cc3c(=O)c(C(=O)O)cn4c3c2SCC4)CC1	inactive: 3.03%
COC(=O)c1scc(-c2ccc(C)cc2)c1S(=O)(=O)Nc1ccc(F)cc1F	inactive: -11%
CC(=O)c1ccc(NC(=O)C2Cc3ccccc3N2C(=O)c2ccccc2)cc1 (centres undefined)	inactive: -8.81%
Cc1ccc(N2CCN(S(=O)(=O)c3cc(C(=O)Nc4cc(Cl)cc(Cl)c4)ccc3F)CC2C)cc1 (centres undefined)	inactive: 2.83%
CC(=O)Nc1nonc1-c1nnc(SCC(=O)Nc2cccc(F)c2)n1-c1ccccc1	inactive: -15.3%
Cc1ccc(CN2CCCn3nc(C(=O)NC(C)C)cc3C2=O)cc1	inactive: 10.1%
COc1ccc(C)cc1NC(=O)Cn1c(=O)c(C(F)(F)F)nc2ccccc21	inactive: 1.99%
CN(C)S(=O)(=O)c1ccc2c(c1)N(CC(=O)NCc1ccc(F)cc1)C(=O)CS2	inactive: -25.4%
Cc1ccc(NC(=O)Cn2cc3c(n2)CCCC3)c(Cl)c1	inactive: -2.87%
CNc1c2c(nn1C)CCCC2	inactive: 0.585%
COc1ccccc1N1CCN(c2ccc(=O)n(CC(=O)NCc3ccc(OC(C)C)cc3)n2)CC1	inactive: 27.1%

SMILES	activation
COc1ccc(Oc2c(C(F)(F)F)oc3c(CN4CCCC(C)C4)c(O)ccc3c2=O)cc1 (centres undefined)	inactive: -21.7%
Cc1cccc(-c2nc3scc(CCNS(=O)(=O)c4ccc(Oc5ccccc5)cc4)n3n2)c1	inactive: -1.7%
Cc1nn(C)c2c1c(C(F)(F)F)cc(=O)n2CC(=O)NCCC(C)C	inactive: -11.9%
CC1=C(c2ccc(C)cc2)S(=O)(=O)NC1=NCCCN1CCN(c2ccccc2F)CC1	inactive: 6.72%
COc1ccc(-n2nc(C(=O)N3CCN(c4ccc(F)cc4)CC3)c3c4ccccc4n(C)c3c2=O)cc1	inactive: 17%
COc1ccc(-n2nc(C(=O)Nc3cc(OC)c(OC)c(OC)c3)c(=O)n(C)c2=O)cc1	inactive: -14.1%
O=C(Nc1ccc2oc(-c3cccnc3)nc2c1)c1ccc(-c2ccccc2OC(F)(F)F)o1	inactive: 16.2%
COc1ccc(-c2cc3ccc(O)c(CN4CCC(C)CC4)c3oc2=O)cc1	inactive: -3.1%
O=C(O)c1ccc(Nc2nc3ccccc3n3cnnc23)cc1	inactive: -2.74%
Cc1cc(C)n(-c2nc3ccccc3nc2Nc2ccc(Cl)cc2Cl)n1	inactive: -3.27%
CCn1c(=O)c2cc(C(=O)NCCCOC)sc2c2ccccc21	inactive: -12.3%
CC(=O)N1CCCc2cc(S(=O)(=O)NCc3cccc(C)c3)ccc21	inactive: 10.2%
COc1ccc(CNC(=O)CCC2N=C3c4ccccc4N=C(SCc4cccc(F)c4)N3C2=O)cc1 (centres undefined)	inactive: -8.19%
CCCN(CCC)C(=O)Cn1nnc2sc(-c3ccccc3)cc2c1=O	inactive: -2.31%
O=c1c2cnn(-c3ccc(F)cc3)c2ncn1Cc1cccc(Cl)c1	inactive: 6.86%
Cc1ccc(C(=O)c2cn(Cc3cccc(C)c3)c3nc(C)ccc3c2=O)cc1	inactive: -17.2%
Cc1nn2c(=O)cc(COC(=O)c3cccc(NC(=O)COc4ccccc4Cl)c3)nc2s1	inactive: -11.8%
Cc1ccc(CNC(=O)c2nc(SCc3ccc(F)cc3)ncc2Cl)cc1	inactive: -22.3%
CC(C)Oc1ccc(CNS(=O)(=O)c2ccc3c(c2)C(C)(C)C(=O)N3C)cc1	inactive: -1.99%
COc1ccc(NC(=O)Cn2c(=O)n(-c3ccccc3)c(=O)c3c4c(sc32)CCCC4)c(OC)c1	inactive: -20%
Cc1cc(C)n2c(Nc3ccc4c(c3)OCCO4)c(-c3ccc(Cl)cc3)nc2n1	inactive: -35.2%

SMILES	activation
COc1ccc(S(=O)(=O)n2nc(C)c(S(=O)(=O)N3CCCCCC3)c2C)cc1	inactive: 22.1%
COC(=O)c1cc(S(=O)(=O)N2CCN(c3ccc(OC)cc3)CC2)c[nH]1	inactive: -13.7%
COc1cccc(NC(=O)CSCc2cc(=O)c3ccc(C)c(C)c3[nH]2)c1	inactive: 9.77%
CCC(=O)N1CCc2cc(S(=O)(=O)NC(CC(C)C)C(=O)NCCc3cccc(C)c3)ccc21 (centres undefined)	active: 64.6%
O=c1ccc2cc(S(=O)(=O)NCc3ccc(Br)cc3)ccc2[nH]1	inactive: 14.9%
Cc1ccc(NC(=O)CSc2nccn2Cc2ccco2)cc1Cl	inactive: -4.58%
Cn1c(=O)c2c(n3c4ccccc4nc13)NC(=O)CC2c1cccc(F)c1 (centres undefined)	inactive: -0.188%
COc1ccc(-c2onc(C)c2C)cc1S(=O)(=O)NCC(C)c1ccccc1 (centres undefined)	inactive: -7.88%
Cc1cc(NC(=O)COCc2cc(-c3ccc(F)cc3)on2)ccc1Br	inactive: 2.17%
CCNc1ccc(-c2nc(-c3ccccn3)no2)cc1[N+](=O)[O-]	inactive: -2.86%
O=C(CCCCn1c(=O)c2ccccc2n(Cc2ccccc2Cl)c1=O)NCc1ccc2c(c1)OCO2	inactive: -6.82%
CCCn1c2ccccc2c2cnn(CC(=O)N3CCN(c4ccccc4F)CC3)c(=O)c21	inactive: -10.5%
CCOc1ccc(CCNS(=O)(=O)c2c(C)nc3scc(C)n3c2=O)cc1OCC	inactive: -5.36%
COC(=O)C1=C(C)NC(C)=C(C(=O)OCC(C)C)C1c1ccccc1[N+](=O)[O-] (centres undefined)	inactive: 38.7%
Cc1ccc(C)c(NC(=O)N2CCC(CN3CCOCC3)CC2)c1	inactive: -10.7%
CCOc1ccc(CNC(=O)c2ccc3nc(CC)c(CC)nc3c2)cc1	inactive: -17.8%
CC(C)Oc1cccc(C(=O)Nc2ccc3oc(-c4cccc(Cl)c4)nc3c2)c1	inactive: 3.95%
COc1cccc(N2CCN(C(=O)CCCn3c(=O)[nH]c4ccc(Br)cc4c3=O)CC2)c1	inactive: 45.8%
Cc1ccc(Nc2c(-c3ccc(Cl)cc3)nc3sccn23)c(C)c1	inactive: -22.4%
CCN(CC)C(=O)c1sc2c(c1C)c(=O)n(-c1ccc(Cl)c(Cl)c1)c(=O)n2Cc1cc(=O)n2ccccc2n1	inactive: -15.5%
COc1cccc(CNC(=O)Cn2c(=O)n3nc(-c4cccc(F)c4)nc3c3ccccc32)c1	inactive: 19.6%

SMILES	activation
Cc1ccc(CCNc2ncnc3onc(-c4ccc(F)cc4)c23)cc1	inactive: -4.39%
Cc1oc2c(cc(NS(=O)(=O)c3ccc(C(C)C)cc3)c3ccccc32)c1C(=O)O	inactive: 47.5%
CC(=O)Nc1ccc(S(=O)(=O)N2CCC(c3nnc(-c4ccc(C)cc4)o3)CC2)cc1	inactive: 13.1%
CC(C)C(=O)N1c2nc(-c3ccco3)nn2C2(CCCCC2)[C@@H]2CCCC[C@@H]21	inactive: -13.9%
Cc1ccc(S(=O)(=O)c2[nH]c(-c3ccccc3)nc2SCC(N)=O)cc1	inactive: 12.8%
COc1ccc(NC(=O)CCn2c(=O)c3cccn3c3cccnc32)cc1Cl	inactive: -12.8%
O=C(Cn1c(=O)n(CCCS(=O)(=O)C2CCCCC2)c(=O)c2ccccc21)Nc1ccccc1C(F)(F)F	inactive: -9.32%
Cc1ccc(C)c(N2CCN(C(=O)CCS(=O)(=O)c3cc4c(cc3Cl)NC(=O)CO4)CC2)c1	inactive: 23.4%
CCOC(=O)N1CCN(C(=O)c2c(C)nn(-c3cccc(C)c3)c2-n2cccc2)CC1	inactive: 0.0635%
COc1ccccc1CNS(=O)(=O)c1ccc2c(c1)CC(=O)N2C	inactive: -18.8%
COC(=O)c1sc2ncccc2c1-n1c(C)ccc1C	inactive: -16.9%
CCCSc1nnc2c(n1)OC(c1ccc(Br)s1)Nc1ccccc1-2 (centres undefined)	inactive: -6.81%
COc1ccc(-n2ncc3c2ncn2nc(COc4ccc(Cl)cc4)nc32)cc1	inactive: -18.1%
COc1ccc(CNC(=O)C2=C(C)C(=O)OC23CCCCC3)cc1	inactive: -14.8%
O=C(NCc1ccc2c(c1)CCN2C(=O)c1ccccc1)c1ccccc1	inactive: -17.1%
Cc1ccc2oc3c(c(=O)c2c1)C(c1ccccc1F)N(CCCN(C)C)C3=O (centres undefined)	inactive: -6.89%
CCOc1ccccc1NC(=O)C(CC)Sc1nc2ncccc2[nH]1 (centres undefined)	inactive: -7.61%
Cc1ccc(-n2ncc3c(N4CCC(C(N)=O)CC4)ncnc32)cc1	inactive: -10.4%
O=C(Cn1ncc2ccsc2c1=O)N1CCN(c2ccc(F)cc2)CC1	inactive: 19.4%
CCC1CN(C(=O)Nc2cccc3c2CCCC3)c2cc(Cl)ccc2O1 (centres undefined)	inactive: -33%
COc1ccc(CCNC(=O)CSc2cn(CCNC(=O)c3cccc(C(F)(F)F)c3)c3ccccc23)cc1OC	active: 104%
